Measured values from article PMC10229581.
Results are given in words; binding and its absence hold for the method and conditions named. In cells and extracts the contact can be indirect. Some results given as binding are weak or reduced against the parent protein; the word gives no strength.

Sequences of proteins named here, by UniProt entry; tags and fusion partners are left off. Residues count along the entry.
UniProt P20029, residues 20-655: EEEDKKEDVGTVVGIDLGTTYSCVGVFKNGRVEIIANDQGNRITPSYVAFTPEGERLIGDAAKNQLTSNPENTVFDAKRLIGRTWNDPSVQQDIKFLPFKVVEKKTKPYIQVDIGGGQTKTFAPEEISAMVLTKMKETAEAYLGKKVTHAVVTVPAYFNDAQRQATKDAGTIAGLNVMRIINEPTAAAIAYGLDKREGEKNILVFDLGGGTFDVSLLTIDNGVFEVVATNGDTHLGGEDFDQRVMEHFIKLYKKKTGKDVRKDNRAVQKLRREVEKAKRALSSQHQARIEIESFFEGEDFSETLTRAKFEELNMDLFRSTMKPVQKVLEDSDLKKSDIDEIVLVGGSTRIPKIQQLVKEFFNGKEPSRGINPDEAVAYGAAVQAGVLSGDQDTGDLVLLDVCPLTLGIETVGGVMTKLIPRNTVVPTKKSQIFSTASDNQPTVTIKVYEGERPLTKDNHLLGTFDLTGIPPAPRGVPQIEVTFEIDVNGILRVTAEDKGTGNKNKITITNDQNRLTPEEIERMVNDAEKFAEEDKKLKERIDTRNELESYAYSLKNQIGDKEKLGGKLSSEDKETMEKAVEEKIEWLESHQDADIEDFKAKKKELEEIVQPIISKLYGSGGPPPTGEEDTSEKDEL
UniProt Q9Z2G6, residues 22-790: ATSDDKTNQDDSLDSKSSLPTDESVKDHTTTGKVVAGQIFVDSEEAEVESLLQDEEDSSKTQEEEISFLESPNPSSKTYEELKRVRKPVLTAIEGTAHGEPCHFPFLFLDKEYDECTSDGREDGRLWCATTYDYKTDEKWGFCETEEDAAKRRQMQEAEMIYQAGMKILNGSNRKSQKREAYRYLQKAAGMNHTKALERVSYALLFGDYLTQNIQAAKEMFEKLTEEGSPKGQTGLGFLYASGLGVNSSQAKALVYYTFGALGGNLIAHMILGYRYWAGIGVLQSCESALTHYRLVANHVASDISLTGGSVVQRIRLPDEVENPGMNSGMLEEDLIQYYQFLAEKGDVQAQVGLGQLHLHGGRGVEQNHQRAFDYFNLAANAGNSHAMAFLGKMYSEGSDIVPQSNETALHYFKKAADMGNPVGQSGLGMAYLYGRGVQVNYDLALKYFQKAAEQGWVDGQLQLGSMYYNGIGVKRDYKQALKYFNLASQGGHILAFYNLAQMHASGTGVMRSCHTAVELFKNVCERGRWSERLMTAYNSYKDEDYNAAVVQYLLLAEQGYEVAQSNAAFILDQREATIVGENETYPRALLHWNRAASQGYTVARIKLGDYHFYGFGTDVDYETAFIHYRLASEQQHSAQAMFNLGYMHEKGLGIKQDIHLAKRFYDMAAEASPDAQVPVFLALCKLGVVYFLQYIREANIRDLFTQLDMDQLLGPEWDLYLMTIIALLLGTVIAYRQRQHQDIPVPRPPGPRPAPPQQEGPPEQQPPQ

T1: lipoprotein lipase (mouse (endogenous in WAT, BAT and differentiated adipocytes)) (UniProt P11152)
T1 sequence: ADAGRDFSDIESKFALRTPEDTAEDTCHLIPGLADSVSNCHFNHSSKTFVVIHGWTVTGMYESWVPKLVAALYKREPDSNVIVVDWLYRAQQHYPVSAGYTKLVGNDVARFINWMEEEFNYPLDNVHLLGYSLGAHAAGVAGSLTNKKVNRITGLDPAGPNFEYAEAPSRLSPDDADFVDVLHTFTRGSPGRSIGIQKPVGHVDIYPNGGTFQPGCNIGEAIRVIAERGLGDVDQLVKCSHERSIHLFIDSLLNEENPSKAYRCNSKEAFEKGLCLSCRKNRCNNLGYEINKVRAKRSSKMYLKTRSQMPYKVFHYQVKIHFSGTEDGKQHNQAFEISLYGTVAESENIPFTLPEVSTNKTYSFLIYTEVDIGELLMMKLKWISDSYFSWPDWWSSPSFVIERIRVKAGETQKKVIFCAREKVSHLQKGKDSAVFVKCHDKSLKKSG

B1: Caveolin 1 (protein, UniProt P49817 1-178)
chain: MSGGKYVDSEGHLYTVPIREQGNIYKPNNKAMADEVTEKQVYDAHTKEIDLVNRDPKHLNDDVVKIDFEDVIAEPEGTHSFDGIWKASFTTFTVTKYWFYRLLSTIFGIPMALIWGIYFAILSFLHIWAVVPCIKSFLIEIQCISRVYSIYVHTFCDPLFEAIGKIFSNIRISTQKEI
B2: Malectin (protein, UniProt Q6ZQI3 31-291)
chain: PGLGVVGAAGAGLPESVIWAVNAGGEAHVDVHGIHFRKDPLEGRVGRASDYGMKLPILRSTPEDQILYQTERYNEETFGYEVPVKEEGDYVLVLKFAEVYFAQSQQKVFDVRLNGHVVVKDLDIFDRVGHSTAHDEIIPMSIRKGKLSVRGEVSTFTGKLYIEFVKGYYDNPKVCALYILAGTVDDVPKLQPHPGLEKKEEEEEEEEYDEGSNLKRQTNKNRVQSGPRTPNPYASDNSSLMFPILVAFGVFIPTLFCLCRL
B3: procollagen-Lysine,2-oxoglutarate 5-dioxygenase 3 (enzyme, UniProt Q9R0E1 28-741)
chain: SDRPRGANAVNPDKLLVITVATAETEGYRRFLQSAEFFNYTVRTLGLGQEWRGGDVARTVGGGQKVRWLKKEMEKYADQKDMIIMFVDSYDVILASSPTELLKKFVQSGSHLLFSAESFCWPEWGLAEQYPEVGMGKRFLNSGGFIGFAPTIHQIVRQWNYKDDDDDQLFYTQLYLDPGLREKLKLSLDHKSRIFQNLNGALDEVILKFDQNRVRIRNVAYDTLPVVVHGNGPTKLQLNYLGNYVPNGWTPQGGCGFCNQTLRTLPGGQPPPRVLLAVFVEQPTPFLPRFLQRLLLLDYPPDRISLFLHNSEVYHEPHIADAWPQLQDHFSAVKLVGPEEALSAGEARDMAMDSCRQNPECEFYFSLDADAVLTNPETLRVLIEQNRKVIAPMLSRHGKLWSNFWGALSPNEYYARSEDYVELVQRKRVGVWNVPYISQAYVIRGETLRTELPQKEVFSSSDTDPDMAFCKSVRDKGIFLHLSNQHEFGRLLATSRYDTDHLHPDLWQIFDNPVDWREQYIHENYSRALDGEGLVEQPCPDVYWFPLLTEQMCDELVEEMEHYGQWSGGRHEDSRLAGGYENVPTVDIHMKQVGYEDQWLQLLRTYVGPMTEYLFPGYHTKTRAVMNFVVRYRPDEQPSLRPHHDSSTFTLNVALNHKGVDYEGGGCRFLRYDCRISSPRKGWALLHPGRLTHYHEGLPTTRGTRYIMVSFVDP

Experiments:
[1] = molecular target: T1, lipoprotein lipase (mouse (endogenous in WAT, BAT and differentiated adipocytes)); assay: co-IP; IP of endogenous LPL from gonadal WAT lysate of WT mice, immunoblot; 1% Triton X-100, 150 mM NaCl, 25 mM Tris-HCl pH 7.5, 4 °C
[2] = molecular target: T1, lipoprotein lipase (mouse (endogenous in WAT, BAT and differentiated adipocytes)); assay: co-IP; IP of endogenous LPL from gonadal WAT lysate of DKO (Sel1L^AdipCre;Atg7^AdipCre) mice, immunoblot; 1% Triton X-100, 150 mM NaCl, 25 mM Tris-HCl pH 7.5, 4 °C
[3] = molecular target: T1, lipoprotein lipase (mouse (endogenous in WAT, BAT and differentiated adipocytes)); assay: co-IP; IP of endogenous LPL from differentiated WT adipocytes, immunoblot for SEL1L
[4] = molecular target: T1, lipoprotein lipase (mouse (endogenous in WAT, BAT and differentiated adipocytes)); assay: co-IP; IP of endogenous LPL from differentiated Hrd1^–/– adipocytes, immunoblot for SEL1L

Molecule	binding [1]	binding [2]	binding [3]	binding [4]
HSPA5/BiP (from UniProt P20029 20-655)	no binding (condition: in WT WAT)	binds	–	–
SEL1L (from UniProt Q9Z2G6 22-790)	–	–	no binding (condition: in WT adipocytes (HRD1 present))	binds
B1	binds	–	–	–
B2	–	binds	–	–
B3	no binding (condition: in WT WAT)	binds	–	–
